Measurements taken from paper PMC4336329 (PLoS ONE, 2015).
In all, about 310,000 compounds went through this assay and about 2,200 (0.71%) showed an effect of 50% or more. The effect is printed as a negative number. Some of the results follow.

What follows are compounds tested against human ether-à-go-go-related gene (hERG) potassium channel (human, UniProt Q12809) (assay: primary screen, population patch clamp on CHO cells stably expressing hERG).
Sequence of human ether-à-go-go-related gene (hERG) potassium channel (Q12809 whole entry, looked up): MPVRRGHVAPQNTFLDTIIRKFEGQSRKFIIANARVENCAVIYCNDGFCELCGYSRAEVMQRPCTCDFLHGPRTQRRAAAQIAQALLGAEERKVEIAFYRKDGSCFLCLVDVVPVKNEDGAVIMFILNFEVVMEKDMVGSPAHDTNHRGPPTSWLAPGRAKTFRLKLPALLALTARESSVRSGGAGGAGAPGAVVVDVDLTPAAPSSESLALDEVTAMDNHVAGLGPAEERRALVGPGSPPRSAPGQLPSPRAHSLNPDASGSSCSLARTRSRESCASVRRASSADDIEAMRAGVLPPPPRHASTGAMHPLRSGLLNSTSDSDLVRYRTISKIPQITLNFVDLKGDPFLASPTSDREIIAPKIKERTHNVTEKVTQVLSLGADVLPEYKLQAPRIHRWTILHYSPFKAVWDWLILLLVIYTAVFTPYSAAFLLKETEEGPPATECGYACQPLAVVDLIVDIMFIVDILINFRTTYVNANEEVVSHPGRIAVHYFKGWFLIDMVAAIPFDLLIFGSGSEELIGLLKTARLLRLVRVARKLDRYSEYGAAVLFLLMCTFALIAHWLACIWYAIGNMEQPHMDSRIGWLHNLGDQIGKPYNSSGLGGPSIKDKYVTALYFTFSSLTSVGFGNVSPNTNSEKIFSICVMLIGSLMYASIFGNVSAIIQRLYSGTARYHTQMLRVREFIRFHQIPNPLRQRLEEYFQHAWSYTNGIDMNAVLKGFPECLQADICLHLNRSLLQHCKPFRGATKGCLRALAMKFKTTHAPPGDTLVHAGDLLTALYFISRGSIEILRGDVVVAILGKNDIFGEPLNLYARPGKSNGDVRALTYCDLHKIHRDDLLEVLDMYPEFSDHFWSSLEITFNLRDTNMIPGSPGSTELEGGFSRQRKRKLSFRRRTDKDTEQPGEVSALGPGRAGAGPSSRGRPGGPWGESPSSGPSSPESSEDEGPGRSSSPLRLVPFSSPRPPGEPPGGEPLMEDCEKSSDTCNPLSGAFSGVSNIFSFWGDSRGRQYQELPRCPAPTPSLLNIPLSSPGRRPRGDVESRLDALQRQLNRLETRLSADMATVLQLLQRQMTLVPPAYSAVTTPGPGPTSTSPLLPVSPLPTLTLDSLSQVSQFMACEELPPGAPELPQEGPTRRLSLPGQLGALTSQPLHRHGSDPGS

SMILES	hERG current change (%, negative = inhibition) at 1uM
CCC(CO)NC(=O)c1ccc(-c2nn(C)c(=O)c3ccccc23)cc1 (centres unmarked)	4.07%
CN(C)c1ccc(CNC2CC(C)(C)NC(C)(C)C2)cc1	10.9%
Clc1ccc(Oc2ncnc3oc(-c4ccccc4)cc23)cc1	6.4%
O=C(CSc1ncn[nH]1)Nc1ccc(Cl)c(Cl)c1	7.36%
CC(C)(C)CC(C)(C)c1ccc(O)c(CN2CCN(CCC#N)CC2)c1	15.8%
O=C(CN1C(=O)C2CC=CCC2C1=O)Nc1nnc(SCc2ccc(F)cc2)s1 (centres unmarked)	5.08%
CCOc1ccccc1N1CCN(Cc2cccc(OC)c2OC)CC1	-2.34%
CCC(=O)Nc1ccc(NC(=O)c2ccccn2)cn1	12.8%
O=C(Nn1cnnc1)c1ccc(F)cc1	8.73%
Cc1cc(C(=O)N/N=C/C=C/c2ccc3c(c2)OCO3)n[nH]1	6.14%
Cc1cc(Cl)cc2c1NC(=O)[C@]21[C@@H]2C(=O)N(Cc3ccccc3)C(=O)[C@@H]2[C@@H]2CCCN21	0.242%
O=C(NCCOc1ccccc1F)c1ccccc1SCc1ccc(F)cc1	4.4%
CCc1c(C)nc(SCC(=O)c2ccc(C)c(C)c2)[nH]c1=O	7.31%
CCOC(=O)c1c(N)sc(C(=O)N(CC)CC)c1C	12.4%
Cn1c(NNC(=O)c2ccc(C(C)(C)C)cc2)cc(=O)n(C)c1=O	5.33%
O=c1oc2ccccc2c(Nc2cccc3ccccc23)c1[N+](=O)[O-]	12.6%
COCCN(C(=O)CCC(=O)Nc1cc(C)on1)C(C(=O)NC1CCCC1)c1ccccc1F (centres unmarked)	22.4%
CCCC1(C(=O)OCC)NC(c2ccc(OC)cc2OC)C2C(=O)N(c3ccc4c(c3)OCCO4)C(=O)C21 (centres unmarked)	0.29%
O=S(=O)(c1ccc2nnn(OCc3ccccc3)c2c1)N1CCOCC1	8.31%
CCN1CCc2nc(N)sc2C1	7.64%

SMILES	hERG current change (%, negative = inhibition) at 1uM
COc1ccc(/C=C2\SC(=S)N(C(C)C(=O)NC3C=CS(=O)(=O)C3)C2=O)cc1 (centres unmarked)	18.6%
C=C(C)C(=O)O[C@H]1C/C(C)=C\C(=O)/C=C(\C)[C@H](O)[C@@H]2OC(=O)C(=C)[C@@H]21	13.3%
COC(=O)COc1ccc2cccc(-n3cnnn3)c2c1	12.5%
O=C(C1CCN(C2CC(=O)N(c3cccc(Cl)c3)C2=O)CC1)N1CCCCCC1 (centres unmarked)	5.78%
COc1ccc(NC(=O)Cn2nnc(-c3ccccc3NC(=O)c3ccco3)n2)cc1	-1.08%
COc1ccc(Cl)cc1Nc1cc(C)nc2ccccc12	-32.2%
COc1cc(C=NCC2OCCc3ccccc32)cc(OC)c1 (centres unmarked)	13.1%
CCc1nn(CC(=O)Nc2ccc(Br)c(C)c2)c(=N)s1.Cl	-8.04%
CCOC(=O)/C(=C/Nc1ccc(F)cc1)[N+](=O)[O-]	10%
COc1ccccc1NC(C)C(=O)N/N=C/c1ccccc1OCc1cccc(Br)c1 (centres unmarked)	1.83%
O=S(=O)(Nc1nc2ccccc2s1)c1ccc(Cl)s1	10.6%
NC(=O)N/N=C\c1cc(Br)ccc1O	7.14%
COc1ccc(CNC(=O)CS(=O)(=O)Cc2nc(-c3ccc(OC)cc3)oc2C)cc1	-0.658%
CCOCC(=O)Nc1ccc(Br)c(C)c1	12.8%
COC(=O)c1c(NC(=S)NC(=O)c2ccco2)sc2c1CCCC2	11.9%
COc1cc(C2C(C#N)=C(C)NC3=C2C(=O)CC(C)(C)C3)ccc1OCCO (centres unmarked)	10.2%
Cc1cccc(COC(=O)CCCNC(=O)c2ccc(Cl)cc2)c1	3.7%
COC(=O)c1cc(NC(=O)Nc2cccc(Cl)c2)ccc1Cl	10%
COc1ccccc1NS(=O)(=O)c1ccc(C)c(C(=O)NCC(c2ccco2)N2CCCCC2)c1 (centres unmarked)	-20.1%
COc1ccc(C(=O)N(Cc2ccccc2)c2cccc(C)c2)cc1S(=O)(=O)N1CCOCC1	2.85%

SMILES	hERG current change (%, negative = inhibition) at 1uM
CN(C)c1cccc2c(S(=O)(=O)NCc3ccc(S(N)(=O)=O)cc3)cccc12	11.8%
CC1(C)C2CCC1(C)C(OC(=O)c1ccc(O)cc1)C2 (centres unmarked)	11.6%
Cc1cc(C)nc(Nc2ncn[nH]2)n1	-5.07%
COCC(=O)NNC(=O)Cc1ccc(Cl)cc1	11.9%
CCC(CO)NCC#Cc1ccccc1.Cl (centres unmarked)	5.73%
COc1ccc(NC(=O)c2cccc3cccnc23)cc1S(N)(=O)=O	13.6%
O=C(O)c1cc(S(=O)(=O)N2CCCc3ccccc32)ccc1Cl	15.4%
CC(C)C(=O)N(Cc1cc(=O)[nH]c2ccccc12)c1ccccc1	13.9%
Cc1ccc(N2CC(C(=O)NCC3CCCO3)CC2=O)cc1Cl (centres unmarked)	3.74%
N#CCC(=O)N/N=C/c1coc2ccccc2c1=O	9.41%
CCOC(=O)c1ccc2c(c1)nc(SCC(=O)NC(C)C)n2CC	10.9%
O=C1NC2(CCC3(CC2)OCCO3)NN1c1ccccc1	-29%
CCNC(=S)NNC(=O)Cc1ccccc1	17.9%
Cc1ccc(OC(=O)c2cc(C)nn2C(C)(C)C)cc1	15.4%
O=C(NCc1ccc(F)cc1)C(=O)NCC(c1ccco1)N1CCOCC1 (centres unmarked)	9.09%
CCc1cc(CNC(=O)c2cccc(OC3CCN(S(C)(=O)=O)CC3)c2)on1	-18.3%
COc1nc(-c2ccncc2)nc2ccccc12	10.5%
Cc1cccc(-c2nc(NCCCN(C)C)c3ccccc3n2)c1.Cl	12.6%
Cc1ccc(CNC(=O)C2CCC(=O)N(CCc3ccc(Cl)cc3)C2)cc1 (centres unmarked)	-6.96%
